Experimental findings from ChEMBL document CHEMBL4888484, “Replenishing the malaria drug discovery pipeline: Screening and hit evaluation of the MMV Hit Generation Library 1 (HGL1) against asexual blood stage Plasmodium falciparum ,using a nano luciferase reporter read-out” (2022) are described below.

In all, about 150,000 compounds went through this assay and about 540 (0.36%) showed an effect of 50% or more. The list shows a part of the results.

This assay deals with Plasmodium falciparum. Put plainly: Primary screen in NF54 nanoGlo assay, in single point, at 2uM, 72h; a lower Z score goes with more inhibition. It counts as functional, Erythrocyte. The conditions noted are these: timepoint 72 hour.
In general, % Inhibition refers to the change of the read-out against control, counted positive when it falls. For `O=C(Nc1ccccc1)C1CCN(c2nc(=O)c3cn[nH]c3[nH]2)CC1`, the “% Inhibition” value is reported as -6% and the Z score was 1.
For `Cc1nc(-c2ncc(C(=O)N3[C@@H]4CC[C@H]3CN(C)C(=O)C4)c(O)n2)cs1` the same measures were -7% and 0.71.
For `Cc1cncn1C1CCN(S(=O)(=O)c2ccc(C(F)(F)F)cc2)CC1`, in that order: -9% and 1.87.
For the compound `COc1cccc2c1[C@H](C(=O)NCCS(N)(=O)=O)CC2`, the “% Inhibition” value is reported as -5% and the Z score was 0.6.
Consider `CCOC(=O)c1noc2ncnc(N[C@H]3CCCc4ccccc43)c12`, for which the “% Inhibition” value was -1% and the Z score was found to be 0.12.
For `CCCOCC(=O)NC1c2ccccc2CCC1n1ccnc1` (stereo not given) the same measures were -5% and 0.71.
For `O=C(c1cc2n(n1)CCCO2)N1CC2C3CCC(O3)C2C1` (stereo not given), in that order: 7% and -1.05.
For the compound `COc1cccc(C(=O)Nc2nn(C)c3ncccc23)c1`, the “% Inhibition” value is on record as -6% and the Z score turned out to be 0.85.
`O=C(CCCn1cccn1)NCC[C@H]1CCOC1`: the “% Inhibition” value was -12% and the Z score was found to be 1.16.
For `CC1(C)C(=O)NCCN1C(=O)c1cc(Cl)sc1Cl`, in that order: 3% and -0.37.
For `O=C(OCc1ccccc1)C(C(=O)OCc1ccccc1)n1c(=O)sc2ccccc21`, in that order: 1% and -0.24.
For `Cc1nn(-c2ccc(NC(=O)[C@@H]3CCCO3)cn2)c(C)c1Cl`, in that order: -13% and 2.4.
On to `O=C1CCc2cc(NC(=O)NC3CCCCC3)ccc2N1`, for which the “% Inhibition” value is reported as -6% and the Z score is reported as 1.07.
For `CCc1c(C(=O)N2CC(C)N(C)CC2C)[nH]c(C)c1C(N)=O` (stereo not given) the same measures were 2% and -0.32.
For `Cc1ccc([C@H](C)NC(=O)CCN2CCCCCCC2)cn1` the same measures were -3% and 0.48.
For `Cc1ccccc1OCC(=O)O[C@@H](C)C(=O)N1CCCc2ccccc21`, in that order: -5% and 0.92.
Turning to `O=C(C[C@H]1CCC(=O)N(Cc2ccccc2)CC1)NC1CCN(Cc2ccccc2)CC1`, the “% Inhibition” value was 31% and the Z score is -0.69.
For `CCNc1cc(N2CCC[C@H](CCC(=O)N3CCN(C(=O)c4ccco4)CC3)C2)ncn1` the same measures were -7% and 1.31.
On to `COCC(CCO)NC1C=Cc2ccccc2OC1` (stereo not given), for which the “% Inhibition” value is -1% and the Z score is recorded as 0.25.
For `CN(C)c1ccc([C@](O)(CC#N)C(F)(F)F)cc1`, in that order: -5% and 0.9.
For `Cc1ccc(C(=O)NC[C@@H](CO)C2CC2)c2c1CCC2` the same measures were 5% and -0.93.
Consider `COc1ccc(-c2cccc3c2CCN(C(=O)CC(C)C)[C@@H]3C)cc1`, for which the “% Inhibition” value was -13% and the Z score amounted to 1.63.
For `Cc1ccc(CN2CCCN(C(=O)[C@@H]3Cc4ccccc4C(=O)O3)CC2)cc1` the same measures were -11% and 2.11.
Regarding `COc1ccc(/C=C/CN2CC[C@](C)(O)[C@H](C)C2)cc1`, the “% Inhibition” value is on record as -6% and the Z score was found to be 0.96.
For `CC(C)C[C@H]1C(=O)NCCCN1C(=O)c1cn(C)cn1`, in that order: 5% and -0.92.
For `Cn1ncc(Cl)c1[C@@H]1CCCCCN1C(=O)c1cccs1`, in that order: -10% and 0.9.
For `COC(=O)c1cc(C)nc2onc(-c3ccc(F)cc3)c12`, in that order: -22% and 2.62.
`O=C(NCc1c(F)cc(Br)cc1F)NCC(F)F`: the “% Inhibition” value was -1% and the Z score was 0.16.
For `COC(=O)C1CCN(C(=O)NC(C)CCc2cccn2C)CC1C` (stereo not given), in that order: 5% and -0.69.
For `CC1CCN(c2ncc3c(=O)n(CC(=O)Nc4ccc(Cl)cc4)cnc3n2)CC1`, in that order: -10% and 1.11.
For `O=C(NCCCc1ccccc1)c1nn(Cc2ccncc2)c2c1CN(C(=O)c1ccncc1)CC2` the same measures were -1% and 0.17.
For `O=C(O)c1cc2sccc2nc1C(F)(F)F`, the “% Inhibition” value is on record as -18% and the Z score was found to be 2.03.
For `CCN(C)C(=O)C(C)C(N)c1ccccc1` (stereo not given), in that order: -7% and 1.02.
For `Cc1cccc2c(N3CCC4(CCOCC4)CC3)ncnc12`, in that order: -5% and 0.76.
For `Cc1cccc(CN2C(=O)OC(c3ccc(NC(=O)c4cccs4)cc3)C2C(=O)NCC2CCCO2)c1` (stereo not given) the same measures were 2% and -0.24.
Consider `Cc1nc(C(=O)N2CCN([C@H](C#N)C3CCCCC3)CC2)cs1`, for which the “% Inhibition” value was -23% and the Z score was determined as 2.75.
As for `CNC(=O)CN1CCN(C(=O)N2CCC(C)CC2)CC1`, the “% Inhibition” value is recorded as -18% and the Z score came out at 2.36.
For `CC(C)Oc1ccc(C2CC(=O)N(c3cccc(N4C(=O)CC(c5ccc(OC(C)C)cc5)C4=O)c3)C2=O)cc1` (stereo not given), in that order: -7% and 0.93.
For `CCOc1ccc(N(C)CCNS(C)(=O)=O)cc1` the same measures were -13% and 1.57.
Turning to `CCN(CC)C(=O)N1CCC(c2nc(-c3ccncc3)cs2)CC1`, the “% Inhibition” value was -11% and the Z score amounted to 1.98.
On to `Cc1cccc2c(NCC(C)(C)CCS(C)(=O)=O)c(C#N)cnc12`, for which the “% Inhibition” value stood at 7% and the Z score is recorded as -1.36.
For `CS(=O)(=O)Nc1ccc(-n2nnn(CC(=O)NC3CC3)c2=O)cc1`, in that order: -6% and 1.22.
For `O=C(NC1CC1)c1cc(NS(=O)(=O)c2ccc(C3CCCCC3)cc2)cnc1N1CCNCC1`, in that order: -11% and 1.81.
For `COc1cccc2sc(OC3CN(C(=O)c4ccn(C)n4)C3)nc12` the same measures were -7% and 1.18.
Consider `COc1cc(CCc2ncnn2CCO)ccc1C`, for which the “% Inhibition” value was -13% and the Z score worked out at 1.74.
Consider `Cc1cc(C)nc(CN(C)CCC(=O)Nc2ccccc2C(C)C)c1`, for which the “% Inhibition” value is -16% and the Z score is recorded as 2.3.
For `Cn1ccc(CCNC(=O)N2CCC[C@@H](CN3CCOCC3)C2)n1` the same measures were -17% and 3.19.
For `COc1ccc(Br)cc1CN1CCC[C@H]1c1cc(C(C)C)no1` the same measures were 2% and -0.24.
For `CCC1(c2ccccc2)CN(C(=O)c2c(C)nn(C)c2Cl)C1`, in that order: 0% and 0.02.
As for `Cn1c(=O)ccc2ccc3ccccc3c21`, the “% Inhibition” value is -11% and the Z score was found to be 1.42.
As to `CC1CCCCC1N(C)Cc1nccn1C(F)F` (stereo not given), the “% Inhibition” value was -13% and the Z score stood at 1.14.
On to `N#Cc1cc2c([nH]c1=O)CCN(C(=O)c1ccc(OC(F)(F)F)cc1)C2`, for which the “% Inhibition” value is -9% and the Z score is 1.46.
For `Cc1ccc(COC(=O)Cn2nnc3ccccc32)cc1` the same measures were 12% and -0.97.
For `Cc1cc(=O)c2ccccc2n1CC(=O)N1CC[C@H](Cc2ccc(CO)cc2)C1` the same measures were -9% and 1.46.
For `CCCN(CC#Cc1ccccc1)Cc1cc(C#CCO)cs1` the same measures were 0% and -0.05.
